In publication PMC13280575:
These are yes or no findings as the source states them, for the method shown. For part of these data: In cells and extracts the contact can be indirect. Some binding calls cover weakened binding; strength is not graded here. For part of these data: Sequences can lack the tags named with a protein. Each block holds one binder with its values, some of them ahead of it.

Columns and labels:
[1] = molecular target: T1, PER2(822–1255) bait in pBT (human) (UniProt O15055); experiment: two-hybrid; BacterioMatch II bacterial two-hybrid, direct co-transformation of defined pBT-PER2 baits and pTRG-BRCA1 preys; growth on Tet/Cam, Tet/Cam/3-AT and Tet/Cam/3-AT/Str
T1 sequence: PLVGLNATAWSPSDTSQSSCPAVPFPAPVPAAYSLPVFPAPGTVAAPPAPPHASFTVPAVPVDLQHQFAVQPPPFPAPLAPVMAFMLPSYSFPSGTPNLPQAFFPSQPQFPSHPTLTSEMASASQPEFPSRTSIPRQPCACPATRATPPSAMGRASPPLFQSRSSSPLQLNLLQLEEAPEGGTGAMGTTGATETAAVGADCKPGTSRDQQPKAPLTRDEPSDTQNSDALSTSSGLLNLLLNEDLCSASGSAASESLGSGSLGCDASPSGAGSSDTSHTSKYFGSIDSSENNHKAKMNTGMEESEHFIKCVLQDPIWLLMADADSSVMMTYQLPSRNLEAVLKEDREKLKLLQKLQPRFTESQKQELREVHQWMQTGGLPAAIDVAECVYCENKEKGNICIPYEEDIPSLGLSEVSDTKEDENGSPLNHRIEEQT

[2] = molecular target: T2, pBT-PER2 (residues 1-1255), full-length human PER2 bait (human) (UniProt O15055); experiment: as above
T2 sequence: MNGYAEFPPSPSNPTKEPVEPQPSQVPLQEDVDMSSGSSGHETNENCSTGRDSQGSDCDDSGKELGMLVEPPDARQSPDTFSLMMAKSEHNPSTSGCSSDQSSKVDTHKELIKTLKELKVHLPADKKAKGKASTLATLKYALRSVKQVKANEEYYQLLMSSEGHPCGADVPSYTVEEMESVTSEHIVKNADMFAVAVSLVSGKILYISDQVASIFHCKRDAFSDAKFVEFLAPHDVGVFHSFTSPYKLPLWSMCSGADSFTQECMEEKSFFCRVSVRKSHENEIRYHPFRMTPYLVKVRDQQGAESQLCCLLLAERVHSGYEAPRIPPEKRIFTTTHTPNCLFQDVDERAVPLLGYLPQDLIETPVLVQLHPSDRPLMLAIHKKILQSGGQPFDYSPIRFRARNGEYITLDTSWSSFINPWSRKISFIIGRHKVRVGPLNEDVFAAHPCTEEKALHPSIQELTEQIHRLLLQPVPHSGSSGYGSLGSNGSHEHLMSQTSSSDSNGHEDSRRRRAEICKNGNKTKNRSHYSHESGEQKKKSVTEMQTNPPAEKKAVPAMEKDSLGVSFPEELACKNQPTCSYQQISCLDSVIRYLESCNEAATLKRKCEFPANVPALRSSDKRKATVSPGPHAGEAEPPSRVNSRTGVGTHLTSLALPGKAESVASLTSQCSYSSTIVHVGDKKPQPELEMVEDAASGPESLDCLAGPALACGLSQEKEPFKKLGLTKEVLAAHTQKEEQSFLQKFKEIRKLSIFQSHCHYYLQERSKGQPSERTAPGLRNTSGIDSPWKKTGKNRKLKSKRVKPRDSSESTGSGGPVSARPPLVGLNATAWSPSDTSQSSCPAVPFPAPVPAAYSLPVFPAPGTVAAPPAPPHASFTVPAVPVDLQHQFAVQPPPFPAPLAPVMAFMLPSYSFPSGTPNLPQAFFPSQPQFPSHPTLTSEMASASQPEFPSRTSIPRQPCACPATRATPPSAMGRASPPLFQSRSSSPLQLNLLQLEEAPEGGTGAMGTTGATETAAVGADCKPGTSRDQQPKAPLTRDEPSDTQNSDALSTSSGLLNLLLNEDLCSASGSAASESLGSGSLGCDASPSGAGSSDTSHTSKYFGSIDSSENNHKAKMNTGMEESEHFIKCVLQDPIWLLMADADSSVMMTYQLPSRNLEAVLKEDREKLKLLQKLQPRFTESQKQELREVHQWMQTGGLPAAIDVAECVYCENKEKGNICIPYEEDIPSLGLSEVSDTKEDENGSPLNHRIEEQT

[3] = molecular target: T3, PER2(683–872) bait in pBT (human) (UniProt O15055); experiment: as above
T3 sequence: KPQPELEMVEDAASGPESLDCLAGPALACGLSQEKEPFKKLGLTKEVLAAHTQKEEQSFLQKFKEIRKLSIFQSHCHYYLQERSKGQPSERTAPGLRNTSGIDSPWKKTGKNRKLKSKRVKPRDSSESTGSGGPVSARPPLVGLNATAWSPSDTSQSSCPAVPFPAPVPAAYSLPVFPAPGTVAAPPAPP

[4] = molecular target: T4, PER2(356–574) bait in pBT (human) (UniProt O15055); experiment: as above
T4 sequence: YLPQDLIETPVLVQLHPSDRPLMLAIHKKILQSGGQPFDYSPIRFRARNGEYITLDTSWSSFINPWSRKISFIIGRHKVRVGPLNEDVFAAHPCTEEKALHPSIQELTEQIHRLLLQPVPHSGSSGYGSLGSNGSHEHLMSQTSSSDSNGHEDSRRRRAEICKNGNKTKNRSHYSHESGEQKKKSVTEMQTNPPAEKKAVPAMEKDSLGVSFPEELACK

[5] = molecular target: T2, pBT-PER2 (residues 1-1255), full-length human PER2 bait (human); experiment: two-hybrid; BacterioMatch II bacterial two-hybrid screen: PER2 bait in pBT against a human liver cDNA library in pTRG; selection on 5 mM 3-AT, then 3-AT plus streptomycin; 37 °C
[6] = molecular target: T5, GST-PER2(1121–1255) (human) (UniProt O15055); experiment: condition: 20 μg GST fusion protein, 3 μL in vitro translated protein; pull-down; 20 μg GST fusion protein on glutathione-Sepharose beads with 3 μL in vitro translated [35S]-labelled protein; 20 mM Tris-HCl pH 7.4, 100 mM NaCl, 5 mM EDTA, 0.1 % Triton X-100; 1 h at 4 °C; washes with 100 mM and 1 M NaCl; autoradiography; only the target purified
T5 sequence: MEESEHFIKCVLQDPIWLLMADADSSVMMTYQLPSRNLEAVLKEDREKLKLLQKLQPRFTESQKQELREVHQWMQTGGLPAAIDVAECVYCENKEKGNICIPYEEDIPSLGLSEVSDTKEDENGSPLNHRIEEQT

[7] = molecular target: T6, GST-PER2(575–682) (human) (UniProt O15055); experiment: as above
T6 sequence: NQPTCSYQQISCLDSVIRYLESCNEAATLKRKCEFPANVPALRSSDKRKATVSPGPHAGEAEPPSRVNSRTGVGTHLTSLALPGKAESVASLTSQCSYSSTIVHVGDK

[8] = molecular target: T7, GST-PER2(873–1120) (human) (UniProt O15055); experiment: as above
T7 sequence: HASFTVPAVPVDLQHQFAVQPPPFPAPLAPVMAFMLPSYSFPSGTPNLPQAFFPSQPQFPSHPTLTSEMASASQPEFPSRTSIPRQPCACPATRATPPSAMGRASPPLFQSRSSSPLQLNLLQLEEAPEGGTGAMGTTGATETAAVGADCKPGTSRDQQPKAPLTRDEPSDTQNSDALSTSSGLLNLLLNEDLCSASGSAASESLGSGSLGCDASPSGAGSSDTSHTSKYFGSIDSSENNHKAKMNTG

[9] = molecular target: T8, GST-PER2(173–355) (human) (UniProt O15055); experiment: as above
T8 sequence: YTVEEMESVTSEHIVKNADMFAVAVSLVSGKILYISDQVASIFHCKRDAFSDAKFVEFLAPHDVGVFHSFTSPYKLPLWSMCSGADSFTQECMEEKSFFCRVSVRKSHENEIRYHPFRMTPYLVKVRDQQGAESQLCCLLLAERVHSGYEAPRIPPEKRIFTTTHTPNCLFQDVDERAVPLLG

GST-PER2(1–172) (human) = molecular target: T9, GST-PER2(1–172) (human) (UniProt O15055); experiment: as above
T9 sequence: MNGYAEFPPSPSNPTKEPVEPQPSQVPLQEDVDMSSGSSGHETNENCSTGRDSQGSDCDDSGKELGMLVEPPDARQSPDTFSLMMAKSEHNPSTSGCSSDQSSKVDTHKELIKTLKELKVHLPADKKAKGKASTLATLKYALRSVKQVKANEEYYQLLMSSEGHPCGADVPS

[10] = molecular target: T10, GST-PER2(683–872) (human) (UniProt O15055); experiment: pull-down; 20 μg GST fusion protein on glutathione-Sepharose beads with 3 μL in vitro translated [35S]-labelled protein; 20 mM Tris-HCl pH 7.4, 100 mM NaCl, 5 mM EDTA, 0.1 % Triton X-100; 1 h at 4 °C; washes with 100 mM and 1 M NaCl; autoradiography; only the target purified
T10 sequence: T3 sequence

[11] = molecular target: T11, GST-PER2(356–574) (human) (UniProt O15055); experiment: as above
T11 sequence: T4 sequence

binding [1]: binds
binding [2]: binds
binding [3]: binds
binding [4]: binds
binding [5]: binds
B1: BRCA1 residues 1670–1863 (BRCT domain) prey in pTRG (domain or fragment, UniProt P38398 1670-1863)
chain: RKHHITLTNLITEETTHVVMKTDAEFVCERTLKYFLGIAGGKWVVSYFWVTQSIKERKMLNEHDFEVRGDVVNGRNHQGPKRARESQDRKIFRGLEICCYGPFTNMPTDQLEWMVQLCGASVVKELSSFTLGTGVHPIVVVQPDAWTEDNGFHAIGQMCEAPVVTREWVLDSVALYQCQELDTYLIPQIPHSHY

binding [6]: no binding
binding [7]: no binding
binding [8]: no binding
binding [9]: no binding
binding (GST-PER2(1–172) (human)): no binding
binding [10]: binds
binding [11]: binds
B2: FLAG-BRCA1 (1670–1863), in vitro translated (domain or fragment, UniProt P38398 1670-1863)
chain: B1 chain
modifications: [35S]-methionine label
